Reference: PubChem BioAssay AID686971 (National Center for Advancing Translational Sciences (NCATS), 2013)
Hit rate of the full screen: of about 360,000 compounds, about 7,500 (2.1%) were called active. The shares of active, inactive and inconclusive entries below differ from those in the screen. Calls follow the shape of the dose curve; as a rule, active = well fitted cell-killing curve with a large enough effect; inconclusive = small, poorly fitted or top-dose-only effect, or effect the other way, or another doubt; inactive = no such curve, though single readings can be large or run the other way. Potencies of inconclusive entries are left out as doubtful fits.

Experiment: qHTS for induction of synthetic lethality in tumor cells producing 2HG: qHTS for the HT-1080-IDH1KD cell line;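 as to activity, negative = toxicity: 0% = DMSO wells and -100% = cell-free medium wells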
Settings: HT-1080 IDH1 knockdown viability, ATP luminescence, 48 h; activity, negative = toxicity: at 46.1 µM (top of the series) unless noted
Procedure, shortened: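 Cytotoxicity counter-line: IDH1KD HT-1080, 48 h, CellTiter-Glo. Curves classed by r2, magnitude and activity.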
Potency is read from the fitted curve at half-maximal effect; tags tell the direction and shape of the fitted curve.

Structure (SMILES)	Potency	activity, negative = toxicity
O=C1NC[C@H](Cc2ccccc2)N(C[C@H]2CCCN2C[C@H](Cc2ccccc2)N2C[C@H](Cc3ccc(O)cc3)N(CCc3ccccc3)C(=O)C2=O)C1=O	inconclusive [cytotoxic, single point]	
CCCCN(C)CCCNC(=O)c1cc(Nc2ccc(OC)c(OC)c2)nc2ccccc12	inactive	
CCOc1ccc(C(C(=O)NCC2CCCO2)N(CCc2cccc(C)c2)C(=O)c2snc(C(N)=O)c2N)cc1 (stereo unspecified)	inconclusive [cytotoxic, single point]	
O=Nc1c(O)n(Cc2cccc(C(F)(F)F)c2)c2ccccc12	inconclusive [cytotoxic, partial curve]	
C=C1C(=O)O[C@@H]2[C@H]3O[C@]3(C)CC/C=C(\C)CC[C@@H]12	active: 18.4 µM	
CC(=O)c1ccc(NC(=O)CCNC(=O)c2ccccc2Cl)cc1		inconclusive: 31.2%
CCCNC(=S)Nc1ccc(Nc2ccccc2)cc1	inconclusive [cytotoxic, single point]	
CCc1cccc2c(C(=O)CN3C(=O)NC4(CCCCC4)C3=O)c[nH]c12	inconclusive [cytotoxic, single point]	
COc1ccc(C(N)c2csc(Nc3ccc(C(=O)c4ccccc4)cc3)n2)cc1 (stereo unspecified)	inconclusive [cytotoxic, single point]	
COC(=O)C[C@H]1C[C@@H]2c3cc(NC(=O)Nc4ccccc4)ccc3O[C@@H]2[C@@H](CO)O1	inactive	
Cc1cc2c(cc1C)CSC(c1ccc3ccccc3c1O)SC2	inconclusive [cytotoxic, partial curve]	
CC(CN1CCOCC1)C(=O)O (stereo unspecified)	inactive	
CCOc1ccc(S(=O)(=O)N2CC(=O)Nc3ccccc32)cc1	active: 11.6 µM	
NC1=NC(=O)C2(COC(c3cccnc3)OC2)S1 (stereo unspecified)	inactive	
COc1ccc(NC(=O)CSc2c3c(nc4ccccc24)CCC3)c(OC)c1	inconclusive [cytotoxic, single point]	
CCOC(=O)c1c(-c2ccc(C)o2)csc1NC(=O)COC(=O)c1ccc(NC(N)=O)cc1	inconclusive [cytotoxic, single point]	
C1CCC(n2nnnc2CN2CCCC2)CC1	inactive	
COc1ccc(/C=C/C(=O)c2cc(F)ccc2OC(=O)c2ccccc2)cc1OC	active: 1.64 µM	
Cc1ccc(NC(=O)C(=O)NCCCN2CC(C(=O)O)CC2=O)cc1 (stereo unspecified)	inactive	
Cc1cc(N2CCN(C)CC2)nc2ccc(NC(=O)c3ccc4c(c3)OCO4)cc12	inconclusive [cytotoxic, single point]	
Cc1ccc(C(=O)CSc2cnc3ccccc3n2)cc1C	inactive	
Cc1ccc(-c2nnc(CSc3nnc(COc4ccccc4)n3-c3ccccc3)o2)cc1	inconclusive [cytotoxic, single point]	
COc1ccc(CCNC(=O)CN2C(=O)NC(Cc3c[nH]c4ccccc34)C2=O)cc1 (stereo unspecified)	inactive	
O=C(Nc1ccc(N2CCCC2)c(Cl)c1)c1ccc([N+](=O)[O-])o1	active: 5.8 µM	

Structure (SMILES)	Potency	activity, negative = toxicity
CCOC(=O)c1ccc(NC(=O)N2CCN(CCc3ccccc3)CC2)cc1	inconclusive [cytotoxic, partial curve]	
COc1cc(/C=C/c2ccc3cccc(O)c3n2)cc(Br)c1OC	inconclusive [cytotoxic, partial curve]	
C=CCOc1c(Cl)cc(C(=S)N2CCCC2)cc1OCC	active: 9.2 µM	
COc1ccc(-n2nc3c(c2NC(=O)c2ccccc2)CS(=O)(=O)C3)cc1		inconclusive: -8.03% [cytotoxic]
CCCCCC(=O)N=Nc1c(O)[nH]c2ccc([N+](=O)[O-])cc12		inconclusive: 30.2%
Cc1cc(/C=C2\Sc3ccccc3N2C)cc(C)[n+]1CC1CCCO1 (stereo unspecified)	inconclusive [cytotoxic, full curve, poor fit]	
CCCC(=NCCc1c(C)[nH]c2ccccc12)C1=C(O)CC(c2ccccc2)CC1=O (stereo unspecified)	active: 4.61 µM	
COc1ccc(N(CC(=O)NCCc2ccc(C)cc2)S(=O)(=O)c2c(C)noc2C)cc1	inactive	
CCCC(=O)Nc1ccc(C(=O)NNC(=S)NC(=O)c2cccs2)cc1	inconclusive [cytotoxic, single point]	
O=C(NCc1cccnc1)C(=O)NCC1OCCCN1S(=O)(=O)c1cc(F)ccc1F (stereo unspecified)	inactive	
CC1CCCCN1c1nc(-c2ccncc2)nc2ccccc12 (stereo unspecified)	active: 29.1 µM	
Cc1ccc2[nH]c3c(=O)n(CCN4CCNCC4)cnc3c2c1	inactive	
Cc1[nH]c2ccccc2c1C(=O)C(=O)NCCc1c[nH]c2ccccc12	inconclusive [cytotoxic, partial curve]	
CCN(CC)S(=O)(=O)c1ccc2oc(Nc3ccc(OC)cc3OC)nc2c1	inconclusive [cytotoxic, single point]	
CCn1c(Cn2nnc(-c3ccccc3)n2)nnc1SCc1ccc(Cl)c(Cl)c1	inconclusive [cytotoxic, partial curve]	
Oc1ccccc1/C=N/Nc1nc2ccccc2o1	inconclusive [cytotoxic, partial curve]	
Cc1nc2ccccc2c(=O)n1/N=C/c1cc(Br)ccc1O	inconclusive [cytotoxic, single point]	
Cc1nc2ccc(C(=O)N3c4ccccc4CC3C)cc2s1 (stereo unspecified)	active: 18.4 µM	
COC(=O)[C@]12CCCCC=C1N(Cc1ccc(Cl)cc1Cl)C(=O)[C@H](CC(=O)NCCC(C)C)C2	inconclusive [cytotoxic, single point]	
Nc1ccccc1O	active: 18.4 µM	
CC(C)CN(C(=O)COC(=O)CCCc1c[nH]c2ccccc12)c1c(N)n(Cc2ccccc2)c(=O)[nH]c1=O	inactive	
CC(=O)Nc1ccc(-c2ccnc3c2CC(C)(C(=O)Nc2cccc(Oc4ccccc4)c2)O3)cc1 (stereo unspecified)	inconclusive [cytotoxic, full curve]	
COc1cc(/C=C2\CC/C(=C\c3ccc(OCCO)c(OC)c3)C2=O)ccc1OCCO	inactive	
CCN(CC)CCN(C(=O)c1ccc(S(=O)(=O)N2CCCCC2)cc1)c1nc2cc3c(cc2s1)OCO3	inactive	

Structure (SMILES)	Potency	activity, negative = toxicity
O=C(N/N=C/c1ccc(N2CCOCC2)cc1)c1ccccn1	inconclusive [cytotoxic, single point]	
Cc1[nH]n(-c2ccccc2)c(=O)c1/C=N/N1C(=O)c2cccc3cccc(c23)C1=O	inconclusive [cytotoxic, single point]	
CCOc1ccc(C2C3=C(Nc4nc(N)[nH]c(=O)c42)c2ccccc2C3=O)cc1 (stereo unspecified)	inactive	
CCOC(=O)C1=CCN(S(=O)(=O)c2ccc(F)cc2)C1c1ccc(Br)cc1 (stereo unspecified)	inconclusive [cytotoxic, single point]	
CC1(c2nc3ccccc3[nH]2)CCC(=O)N1Cc1ccccn1 (stereo unspecified)	inactive	
COc1ccc(/C=C2\SC(=O)N(CCC(=O)Nc3ccccc3)C2=O)cc1OC	inconclusive [cytotoxic, partial curve]	
COc1ccc(/C=C(\C#N)c2c[nH]c3ccccc23)cc1	active: 0.731 µM	
Cc1ccc(/C=N/NC(=O)CCn2nc(C)cc2C)c(C)c1	inconclusive [cytotoxic, single point]	
CCN1CCCC1CNC(=O)c1cc(COc2ccc(C)c(C)c2)on1 (stereo unspecified)	inconclusive [cytotoxic, single point]	
CCc1ccc(C(=O)COC(=O)c2cc([N+](=O)[O-])ccc2NCCO)cc1	inconclusive [cytotoxic, single point]	
C=CCOc1ccccc1CN1CCC(Cc2ccccc2)CC1	inconclusive [cytotoxic, partial curve]	
COc1ccc(SCC(O)Cn2c3ccccc3c3ccccc32)c(OC)c1 (stereo unspecified)	inconclusive [cytotoxic, single point]	
O=C(NNc1cccc(Cl)c1)c1cccnc1Cl	inconclusive [cytotoxic, single point]	
CC1CC(=O)c2ccccc2C1C (stereo unspecified)	inactive	
CC(C)(C)OC(=O)[C@H](Cc1ccccc1)NC(=O)c1nc[nH]c1C(=O)N[C@@H](Cc1ccccc1)C(=O)OC(C)(C)C	inconclusive [cytotoxic, single point]	
O=C(OCc1ccccc1Cl)C1CC(=O)N(Cc2ccco2)C1 (stereo unspecified)	inactive	
COc1cc([N+](=O)[O-])cc(/C=N/N(CCC#N)C(C)=O)c1O	inconclusive [cytotoxic, single point]	
CC[C@]12c3[nH]c4ccccc4c3CCN1C(=O)C(CC(=O)NCC13CC4CC(CC(C4)C1)C3)C[C@@H]2C(=O)N1CCN(C(=O)c2ccco2)CC1 (stereo partly specified)	inconclusive [cytotoxic, single point]	
C[C@]12C=CC(=O)C=C1CC[C@@H]1C2[C@@H](O)C[C@@]2(C)C1CC[C@]2(O)C(=O)COC(=O)CCC(=O)O (stereo partly specified)	inconclusive [rising, partial curve]	
Cc1nn2c(nc1=O)NNC2(C)C(C)(C)C (stereo unspecified)	inconclusive [cytotoxic, single point]	
Cc1ccc(OCC(=O)Oc2c(C)cccc2C)cc1	inactive	
CCN(CC)S(=O)(=O)c1cccc(C(=O)Nc2cc(C)cc(C)c2)c1	inconclusive [cytotoxic, partial curve]	
Cc1nn2c(COc3ccc(NC(=O)c4ccccc4Cl)cc3)nnc2c2ccccc12	active: 14.6 µM	
